Measurements taken from paper PMC12345308.
Where a chain is given by its changes, count along the chain named. Results are given in words; binding and its absence hold for the method and conditions named. Binding seen in cells or lysates may run through a third protein. Some results given as binding are weak or reduced against the parent protein; the word gives no strength. Where a sequence is shown, tags or fusion partners need not be part of it.

How the values were obtained:
B1-2E-GFP (human) = target: T1, B1-2E-GFP (human) (UniProt P98172); test: co-IP; GFP-trap beads from KLB lysates of HEK293T cells co-overexpressing EGFR and GFP-tagged EFNB1 constructs; EGFR detected by Western blot
T1 sequence: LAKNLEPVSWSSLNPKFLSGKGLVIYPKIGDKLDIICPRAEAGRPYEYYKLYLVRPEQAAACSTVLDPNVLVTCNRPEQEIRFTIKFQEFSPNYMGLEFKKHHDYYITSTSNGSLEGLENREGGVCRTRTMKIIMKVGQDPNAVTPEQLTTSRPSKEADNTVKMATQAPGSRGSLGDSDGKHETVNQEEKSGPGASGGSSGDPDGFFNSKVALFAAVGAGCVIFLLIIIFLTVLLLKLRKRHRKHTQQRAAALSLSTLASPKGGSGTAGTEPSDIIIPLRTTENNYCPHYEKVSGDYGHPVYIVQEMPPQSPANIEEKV

B1-2F-GFP (human) = target: T2, B1-2F-GFP (human) (UniProt P98172); test: as above
T2 sequence: T1 sequence with E316F, E317F

EFNB1-GFP (human) [1] = target: T3, EFNB1-GFP (human) (UniProt P98172); test: as above
T3 sequence: T1 sequence with E316Y, E317Y

EFNB1-GFP Y343E (human) = target: T4, EFNB1-GFP Y343E (human) (UniProt P98172); test: as above
T4 sequence: T1 sequence with E317Y

EFNB1-GFP Y344E (human) = target: T5, EFNB1-GFP Y344E (human) (UniProt P98172); test: as above
T5 sequence: T1 sequence with E316Y

MBP-B1-ICD (human) = target: T6, MBP-B1-ICD (human) (UniProt P98172); test: pull-down; 10 ug MBP-B1-ICD fusions bound to amylose beads, 2 h at 4 °C with lysate of HEK293T cells overexpressing EGFR, pre-cleared with MBP beads; washes in 20 mM Tris-HCl pH 8, 200 mM NaCl, 1 mM EDTA, 0.5% IGEPAL; only the target purified
T6 sequence: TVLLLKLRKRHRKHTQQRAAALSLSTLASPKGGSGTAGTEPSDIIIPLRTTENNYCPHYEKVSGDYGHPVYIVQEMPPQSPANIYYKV

MBP-B1-ICD-dPBM (human) = target: T7, MBP-B1-ICD-dPBM (human) (UniProt P98172); test: as above
T7 sequence: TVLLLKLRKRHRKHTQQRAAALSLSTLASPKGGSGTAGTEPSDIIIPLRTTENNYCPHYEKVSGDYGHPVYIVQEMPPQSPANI

EFNB1-GFP (human) [2] = target: T3, EFNB1-GFP (human); test: co-IP; GFP-trap beads from KLB lysates of HEK293T cells overexpressing B1-GFP or GFP alone; endogenous EGFR detected by Western blot

binding (B1-2E-GFP (human)) | binding (B1-2F-GFP (human)) | binding (EFNB1-GFP (human) [1]) | binding (EFNB1-GFP Y343E (human)) | binding (EFNB1-GFP Y344E (human)) | binding (MBP-B1-ICD (human)) | binding (MBP-B1-ICD-dPBM (human)) | binding (EFNB1-GFP (human) [2]) | Substance
no binding | binds | binds | no binding | no binding | binds | no binding |  | Human EGFR, overexpressed (from UniProt P00533 25-1210) (receptor)
 |  |  |  |  |  |  | binds | epidermal growth factor receptor (EGFR), endogenous (from UniProt P00533 25-1210)
